# Test results reported in paper PMC4336329 (PLoS ONE, 2015).
# Among all 310,000 compounds or so, about 2,200 (0.71%) showed an effect of 50% or more. The effect is printed as a negative number. This is one part of the list.
# Biological target: human ether-à-go-go-related gene (hERG) potassium channel (human, UniProt Q12809)
# Assay: primary screen, population patch clamp on CHO cells stably expressing hERG
# Chain of human ether-à-go-go-related gene (hERG) potassium channel (Q12809 whole entry, looked up): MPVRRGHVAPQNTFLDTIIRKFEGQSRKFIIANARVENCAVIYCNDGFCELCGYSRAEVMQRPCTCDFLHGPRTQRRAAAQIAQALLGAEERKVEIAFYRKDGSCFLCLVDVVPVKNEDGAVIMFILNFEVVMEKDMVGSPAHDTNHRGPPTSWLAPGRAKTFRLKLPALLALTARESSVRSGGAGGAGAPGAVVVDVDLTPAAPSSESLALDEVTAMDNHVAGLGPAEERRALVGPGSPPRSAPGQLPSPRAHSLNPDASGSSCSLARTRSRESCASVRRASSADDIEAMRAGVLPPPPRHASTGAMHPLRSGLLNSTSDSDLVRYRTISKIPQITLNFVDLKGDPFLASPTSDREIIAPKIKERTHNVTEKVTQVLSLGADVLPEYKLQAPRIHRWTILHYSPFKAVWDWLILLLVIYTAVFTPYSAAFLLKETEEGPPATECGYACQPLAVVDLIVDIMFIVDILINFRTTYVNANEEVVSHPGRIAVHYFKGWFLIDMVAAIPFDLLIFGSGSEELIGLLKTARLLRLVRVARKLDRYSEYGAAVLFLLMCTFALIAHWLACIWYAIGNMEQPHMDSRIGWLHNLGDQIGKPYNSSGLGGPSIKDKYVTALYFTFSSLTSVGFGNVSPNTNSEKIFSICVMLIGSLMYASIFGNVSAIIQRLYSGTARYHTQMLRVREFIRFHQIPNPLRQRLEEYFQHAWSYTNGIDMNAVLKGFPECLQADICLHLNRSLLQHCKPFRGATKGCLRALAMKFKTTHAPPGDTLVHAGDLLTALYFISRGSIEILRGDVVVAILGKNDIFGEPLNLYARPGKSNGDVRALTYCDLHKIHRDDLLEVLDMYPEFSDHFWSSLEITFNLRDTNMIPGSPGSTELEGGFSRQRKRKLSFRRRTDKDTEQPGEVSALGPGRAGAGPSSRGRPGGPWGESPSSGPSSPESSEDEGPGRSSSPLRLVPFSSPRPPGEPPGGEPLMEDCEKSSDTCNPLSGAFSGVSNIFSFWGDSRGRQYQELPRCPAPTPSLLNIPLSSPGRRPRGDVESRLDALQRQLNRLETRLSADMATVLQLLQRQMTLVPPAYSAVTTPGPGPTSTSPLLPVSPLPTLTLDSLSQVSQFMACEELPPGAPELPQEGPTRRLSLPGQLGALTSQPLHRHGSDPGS
row,Compound,"hERG current change (%, negative = inhibition) at 1uM"
1,COc1ccc(OCC(=O)Nc2ccccc2C(=O)N2CCOCC2)cc1,7%
2,Cc1c(C=N)c(O)n(C)c(=O)c1C#N,10.2%
3,CCCCSP1(=S)NCCCO1 (stereo not shown),-12.6%
4,Cc1ccc(/C=N/NC(=O)Cn2nnc(N)n2)cc1,11.8%
5,CCCn1c(SCC(=O)NCc2ccc(OC)cc2)n[nH]c1=O,-8.92%
6,CN(C)CCNc1nc2c(c(=O)[nH]c(=O)n2C)n1CC(O)COc1ccc(Cl)cc1Cl (stereo not shown),-30.6%
7,Cc1cccc(COc2ccc(/C=N/NC(=O)c3nnn(-c4nonc4N)c3C)cc2)c1,14%
8,CCN(CC)CCCNC(=O)C1c2ccccc2C(=O)N1Cc1ccc(C)cc1 (stereo not shown),1.27%
9,Cc1ccc(Nc2nc(=O)[nH]nc2C)cc1,-6.67%
10,COc1ccc(C(=S)N2CCCC2)cc1OC,6.13%
11,Cn1c(CC(=O)NN)c(Sc2ccccc2)c2ccccc21,5.65%
12,N#CCCN(Cc1cccs1)C(=O)c1ccc(Cl)cc1,6.2%
13,O=C(CSc1ccc(-c2ccco2)nn1)NCCc1ccccc1,-2.33%
14,O=S(=O)(Nc1ccc2c(c1)OCO2)c1ccccc1,-4.87%
15,Cc1cccc(C)c1NC(=O)COC(=O)c1cc(-c2cccnc2)nc2ccccc12,5.88%
16,CCC(=O)Nc1ccc(C(=O)COC(=O)Cc2ccsc2)cc1,-7.02%
17,Cc1cc(C)cc(NC(=O)C2CCCN2S(=O)(=O)c2ccc3c(c2)C(C)(C)C(=O)N3C)c1 (stereo not shown),-0.001%
18,Cc1c(C(=O)Nc2c(F)cccc2F)sc2ncnc(N3CCN(c4ccccc4)CC3)c12,4.01%
19,CCN(C(=O)CSc1nnc(-c2ccccc2)n1C)C1CCS(=O)(=O)C1 (stereo not shown),1.6%
20,O=C(CC(=O)NCc1ccc(Cl)cc1)NCc1ccc(Cl)cc1,8.8%
21,Cc1ccc(S(=O)(=O)N2CCN(c3ccc(S(=O)(=O)N4CCOCC4)cn3)CC2)cc1,5.66%
22,COc1ccc(C2(C)NC(=O)N(CC(=O)Nc3ccc(Br)c(C)c3)C2=O)cc1OC (stereo not shown),12.8%
23,Cc1noc(C)c1C(=O)OCC(=O)c1c(N)n(CC(C)C)c(=O)n(C)c1=O,5.09%

row,Compound,"hERG current change (%, negative = inhibition) at 1uM"
1,CN1CCN(c2ccc(CNC(=O)c3ccco3)cc2)CC1,15%
2,COc1ccc(S(=O)(=O)NCCN2CCOCC2)c2ccccc12,10.8%
3,CCOC(=O)C1(CCOC)CCN(Cc2cc3ccccc3s2)CC1,5.86%
4,Cc1ccc(C(=O)Nc2cccc(C(=O)NCc3ccco3)c2)cc1,5.59%
5,O=C(NNC(=O)c1cnccc1C(F)(F)F)c1ccc(Cl)cc1,12.8%
6,S=c1[nH]nc2n1CCCN2,13.7%
7,O=C(Nc1cccnc1)Nc1ccc(Cl)cc1Cl,17.5%
8,CCOC(=O)C1(CCOC)CCN(Cc2ccc3nonc3c2)CC1,11%
9,Cc1ccc2[nH]c3nc(NN)nnc3c2c1,12.2%
10,N#C/C(=C(/O)COC(=O)CCc1ccc(S(=O)(=O)N2CCOCC2)cc1)c1nc2ccccc2[nH]1,8.46%
11,CCOC(=O)N1CCN(C(=O)Cc2ccc(C)cc2)CC1,12.7%
12,CCCCc1nc(SCC(=O)Nc2nnc(CCCC)s2)n[nH]1,10.1%
13,Cc1ccc(C(=O)N/C(=C\c2cccs2)C(=O)NCc2cccnc2)cc1,-31.8%
14,CC(=O)c1ccc(OCCCC(=O)N(CCC2=CCCCC2)c2c(N)n(Cc3ccccc3)c(=O)[nH]c2=O)cc1,11.5%
15,CC(O)CNCCCOc1cccc(Oc2ccccc2)c1.O=C(O)C(=O)O (stereo not shown),5.74%
16,COc1ccc(C2C(C#N)=C(N)Oc3cc(N)ccc32)cc1OC (stereo not shown),-0.988%
17,Cl.c1ccc2c3c(c(CN4CCCCC4)cc2c1)COC3,1.98%
18,CN(C)[C@H]1N(C(=O)c2ccc(Br)cc2)N=C2c3ccccc3S(=O)(=O)N21,-14.5%
19,COc1ccc(S(=O)(=O)Nc2nnc(C)s2)cc1,-4.85%
20,CC(=O)c1ccccc1-c1csc2ncnc(Sc3nnnn3C)c12,9.95%
21,CC(C(=O)Nc1ccc2c(c1)OCCO2)N1Cc2ccccc2C1=O (stereo not shown),8.41%
22,CC1CC(C)(C)NC(=S)N1CCCC(=O)Nc1ccccc1F (stereo not shown),9.56%
23,CCCCC(=O)Nc1ccc(NC(=O)c2cc(OC)c(OC)c(OC)c2)cn1,13.4%
